What was measured:
[1] = In vivo pharmacokinetic profile following intramuscular dosing in rats (plasma, LC-MS/MS); conditions: rat; for Cmax compared with DMT (SPL026): IM dosing, p=0.005; for plasma levels at 30 mins compared with undeuterated DMT: […] (as fumarate) IM dose
[2] = Solubility of 20 mg/mL DMT fumarate in Britton-Robinson buffer at varied pH
[3] = pH-stability of SPL026 (DMT fumarate) 2.5 mg/mL in 40 mM Britton-Robinson buffer (pH, HPLC assay, related substances)

Row | SMILES | Cmax compared with DMT (SPL026) [1] | increase in Cmax at 10 mg/kg dose compared to […] dose level ([1]; IM, p<0.05) | plasma levels at 30 mins compared with undeuterated DMT [1] | dissolution in each test formulation ([2]; 20 mg/mL nominal, Britton-Robinson buffer, only swirling and shaking needed) | pH of each solution following overnight storage ([2]; 20 mg/mL, ambient conditions) | content after filtration, across pH solutions ([2]; 20 mg/mL, each solution incl. high pH with precipitate) | solubility / appearance of solution ([2]; 20 mg/mL, pH 4, 5, 6 and 7) | solubility / appearance of solution ([2]; 20 mg/mL, pH 8) | solubility / appearance of solution ([2]; 20 mg/mL, pH 9 and pH 10) | concentration by HPLC, change on stability ([3]; Day 7 or Day 17, pH 4 to 9 nominal) | concentration over 17 days ([3]; solutions having a nominal pH≥7)
1 | O=C(O)/C=C/C(=O)O.[2H]C([2H])(Cc1c[nH]c2ccccc12)N(C)C [SPL028i, α,α,-bis-deuterium-N,N-dimethyltryptamine fumarate salt] | significantly higher | 144% | significantly higher | – | – | – | – | – | – | – | –
2 | CN(C)CCc1c[nH]c2ccccc12.O=C(O)/C=C/C(=O)O [SPL026, N,N-dimethyltryptamine (DMT) fumarate salt] | – | – | – | very soluble | no changes from the initial pH values | approximately the same content | clear and colourless | hazy | contained a precipitate | no significant concentration changes | decreased
3 | O=C(O)/C=C/C(=O)O.[2H]C([2H])([2H])N(C([2H])([2H])[2H])C([2H])([2H])Cc1c[nH]c2ccccc12 [SPL028viii, α,α,bis-deuterio-N,N-hexadeuterio-dimethyltryptamine fumarate salt] | significantly higher | – | significantly higher | – | – | – | – | – | – | – | –

— patent US20250032450A1, “[…] INHALABLE FORMULATIONS” (Cybin UK Ltd., priority 2021, published 2025)
